Among the data in publication PMC13083723 (Patterns, 2026) are result_ITMP values, retold here.

Molecules are shown by their SMILES. The campaign covered roughly 5,400 compounds. About 190 (3.5%) showed an effect of 50% or more. The list shows a part of the results.

The assay relates to Vero-E6. The assay can be described thus: primary screen, phospholipidosis by LipidTOX staining; higher = more effect of the substance. The conditions noted are these: 10 µM. The method in brief: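 Single-concentration screen at 10 μM, with DMSO 0.1 v/v % and amiodarone 10 μM as controls. Read-out is LipidTOX Red phospholipid staining, which tolerates aldehyde fixation, in Vero-E6 cells.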
In the case of `CN1CCC(c2c[nH]c3ccc(O)cc23)CC1`, the result_ITMP is reported as -2.21%. Then `CN/C(=C\[N+](=O)[O-])NCCSCc1ccc(CN(C)C)o1`, with -3.1%; and `CC(C)[C@@]1(NC(=O)[C@@H]2C[C@@H]3c4cccc5[nH]cc(c45)C[C@H]3N(C)C2)O[C@@]2(O)[C@@H]3CCCN3C(=O)[C@H](Cc3ccccc3)N2C1=O`, with 11.6%.

As for `Cc1c(C(=O)NCc2cccnc2)nn(-c2ccc(Cl)cc2Cl)c1-c1ccc(Cl)cc1`, the result_ITMP is on record as -1.97%. In the case of `O[C@@H]1CO[C@H]2[C@@H]1OC[C@@H]2O` it was -0.79%; in that of `CC1(C)CCC(C)(C)c2cc(C3(c4ccc(C(=O)O)cc4)OCCO3)ccc21`, 1.81%. Then `CC(C)Oc1ccc(-c2nc(-c3cccc4c3CCC4NCCC(=O)O)no2)cc1C#N` (stereo not drawn), with -0.21%; and `O=C(O)c1cn(C2CC2)c2cc(N3CCNCC3)c(F)cc2c1=O`, with -1.31%; and `CC(=O)C1=C(O)[C@@H]2[C@H]3c4c[nH]c5cccc(c45)C[C@H]3C(C)(C)N2C1=O`, with -1.91%. For the compound `CCCn1c(=O)[nH]c(=O)c2[nH]cnc21`, the result_ITMP is recorded as 0.34%. Then `COC(=O)Nc1nc2ccc(Sc3ccccc3)cc2[nH]1`, with -0.23%; and `OC[C@H]1O[C@@H](n2cnc3c(NC4CCCC4)ncnc32)[C@H](O)[C@@H]1O`, with -1.75%. As for `COc1cc2ncn(-c3cc(OCc4ccccc4C(F)(F)F)c(C(N)=O)s3)c2cc1OC`, the result_ITMP was -2.1%. Then `O=C1C=C2C=C[C@@H]3C[C@@]2(O1)[C@H]1CCCCN31`, with -1.13%. Then `CSc1cc2c(cc1C(F)(F)F)N(C(=O)Nc1cccnc1)CC2`, with -9.16%. In the case of `Cc1cc2nc3c(=O)[nH]c(=O)nc-3n(C)c2cc1C=O` it was 0.33%; in that of `CC(C)C(=O)Oc1ccc(CO)cc1[C@H](CCN(C(C)C)C(C)C)c1ccccc1`, 7.66%; in that of `CCOC(=O)COc1ccc2c(=O)cc(-c3ccccc3)oc2c1`, -8.68%. Turning to `CCCCCCCCCCCCCC[C@@H](O)[C@@H](O)[C@@H](N)CO`, the result_ITMP is given as -1.8%.

As for `COc1cc2c(Nc3ccc(Br)cc3F)ncnc2cc1OCC1CCN(C)CC1`, the result_ITMP is reported as 105%.

With `CCc1c2c(nc3ccc(O)cc13)-c1cc3c(c(=O)n1C2)COC(=O)[C@]3(O)CC`, the result_ITMP is -3.55%. As for `CCOC(=O)O[C@]1(C(=O)OCCl)CC[C@H]2[C@@H]3CCC4=CC(=O)C=C[C@]4(C)[C@H]3[C@@H](O)C[C@@]21C`, the result_ITMP was -0.35%. In the case of `CCN[C@@H](C)Cc1cccc(C(F)(F)F)c1` it was 3.76%; in that of `Cc1oc(-c2ccccc2)nc1CCOc1ccc(CC2SC(=O)NC2=O)c2sccc12` (stereo not drawn), -1.81%; in that of `CCc1cc2c(cc1N1CCC(N3CCOCC3)CC1)C(C)(C)c1[nH]c3cc(C#N)ccc3c1C2=O`, 2.32%. In the case of `C[C@]12CC[C@H]3[C@@H](CCC4=CC(=O)CC[C@@H]43)[C@@H]1CC[C@@H]2O` it was -1.6%; in that of `N=C(N)c1ccc(N2CCN(C3CCN(CC(=O)O)CC3)CC2)cc1`, -2.17%; in that of `COc1cc(N2CCC(O)CC2)ccc1Nc1cc(Nc2ccccc2S(=O)(=O)C(C)C)c2cc[nH]c2n1`, -2.59%. On to `Clc1ccc(C(Cn2ccnc2)OCc2ccsc2Cl)c(Cl)c1` (stereo not drawn), for which the result_ITMP turned out to be 5.85%. In the case of `COc1cc(C(=O)N2CCC(N3CCN(C)CC3)CC2)ccc1Nc1ncc2c(n1)N(C)c1ccccc1C(=O)N2C` it was 37.9%; in that of `CCCC1C(=O)N2C(N(C)C)=Nc3ccc(C)cc3N2C1=O` (stereo not drawn), -1.18%; in that of `c1cnc(N2CCN(Cc3ccc4c(c3)OCO4)CC2)nc1`, -0.76%. For `COC(=O)/C=C/c1cccc(N(Cc2ccc(-c3ccc(N(C)C)cc3)cc2)C(=O)C2CCCCC2)c1`, the result_ITMP was -5.62%. Then `C/C(=C\CNc1ncnc2nc[nH]c12)CO`, with -1.84%; and `C[C@](N)(Cc1ccc(O)c(O)c1)C(=O)O`, with -2.15%; and `C[C@@H](Nc1cc(F)cc(F)c1)c1cc(C(=O)N(C)C)cc2c(=O)cc(N3CCOCC3)oc12`, with 14.6%. In the case of `COc1nc2ccc(Br)cc2cc1[C@@H](c1ccccc1)[C@@](O)(CCN(C)C)c1cccc2ccccc12` it was 18.7%; in that of `CNc1cc2[nH]c(=O)n(-c3ccc(NC(=O)NS(=O)(=O)c4ccc(Cl)s4)cc3)c(=O)c2cc1F`, -3.3%; in that of `CC(C)=CCC[C@](C)(O)[C@H]1CC[C@]2(C)[C@@H]1[C@H](O)C[C@@H]1[C@@]3(C)CC[C@H](O)C(C)(C)[C@@H]3CC[C@]12C`, -1.69%. Then `Cc1c(C(=O)NN2CCCCC2)nn(-c2ccc(Cl)cc2Cl)c1-c1ccc(Cl)cc1`, with 4.52%; and `CCCC(=O)c1cc(F)ccc1OCC(O)CNC(C)(C)C` (stereo not drawn), with 20.3%.

Regarding `Cc1ccc(-c2cn3c4c(sc3n2)CCCC4)cc1`, the result_ITMP is on record as -0.74%. In the case of `COc1cc2c(cc1OC)CC(=O)N(CCCN(C)C[C@H]1Cc3cc(OC)c(OC)cc31)CC2` it was 0.57%; in that of `Cc1[nH]c2ccc(F)cc2c1-c1nc2c3cccnc3c3ncccc3c2[nH]1`, -0.42%; in that of `CS(=O)(=O)c1ccc(-c2cn3ccccc3n2)cc1`, -2.12%. Then `CCCCCCCCCCCCOCCOCCOCCOCCOCCOCCOCCOCCOCCO`, with 1.36%. Regarding `NS(=O)(=O)NCCNc1nonc1/C(=N\c1ccc(F)c(Br)c1)NO`, the result_ITMP was -3.83%. As to `COc1cc(Br)c(S(=O)(=O)Nc2ccc(C(F)(F)F)c(O[C@@H]3CCN(C)C3)c2)cc1OC`, the result_ITMP turned out to be 2.45%. Then `Cc1c(-c2ccccc2)oc2c(C(=O)OCCN3CCCCC3)cccc2c1=O`, with 0.89%; and `C[C@H](NCc1ccc(OCc2ccccc2F)cc1)C(N)=O`, with -0.12%; and `O=C(OC1C[C@@H]2CC3C[C@H](C1)N2CC3=O)c1c[nH]c2ccccc12` (stereo partly drawn), with -7.26%. Then `NCCCC(=O)O`, with -6.43%. Then `Cc1ccc(-c2nn(C(C)(C)C)c3ncnc(N)c23)cc1`, with -0.98%; and `CCCCCCCCCCCCCCCCCCCCCCO`, with 6.73%.

In the case of `COc1ccc(O)cc1`, the result_ITMP was -0.7%. Then `CC(C)C[C@@H](C(=O)N[C@H](C(=O)OC1CCCC1)c1ccccc1)[C@H](O)C(=O)NO`, with -4.02%; and `NC(=O)c1cccc(-c2cc(Nc3ccc(OC(F)(F)F)cc3)ncn2)c1`, with -4.13%; and `Cc1cc(C)c(CNC(=O)c2cc(-c3ccc(CN4CCOCC4)cc3)cc3c2cnn3C2CCCC2)c(=O)[nH]1`, with 17.1%. In the case of `C=C[C@]1(C)C[C@@H](OC(=O)CS[C@@H]2C[C@H]3CC[C@@H](C2)N3C)[C@]2(C)[C@H](C)CC[C@]3(CCC(=O)[C@H]32)[C@@H](C)[C@@H]1O` it was 12.9%; in that of `CC/C(=C(\c1ccc(O)cc1)c1ccc(OCCN(C)C)cc1)c1ccccc1`, 20.4%; in that of `NC(N)=NC(=O)Cc1c(Cl)cccc1Cl`, 3.49%. In the case of `Nc1nc(-c2nn(Cc3ccccc3F)c3ncccc23)ncc1C1CC1` it was 0.5%. Consider `N[C@@H](C(=O)N[C@@H]1C(=O)N2C(C(=O)O)=C(Cl)CC[C@H]12)c1ccccc1`, for which the result_ITMP is given as 0.05%. Then `COc1ccccc1OC(=O)CNC(=O)Cc1ccc(C(=O)c2ccc(C)cc2)n1C`, with -14%.

Take `C#Cc1cccc(Nc2ncnc3cc(OCCOC)c(OCCOC)cc23)c1`: the result_ITMP is reported as 16.4%. On to `COc1ccc(Cn2ccc3ccc(C(=O)NO)cc32)cc1`, for which the result_ITMP was -1.84%. `COC(=O)C1=CO[C@@H](O[C@@H]2O[C@H](CO)[C@@H](O)[C@H](O)[C@H]2O)[C@@H]2C(CO)=CC[C@H]12`: the result_ITMP is given as -3.32%. In the case of `N#Cc1ccc(C2CCCc3cncn32)cc1` (stereo not drawn) it was 4.29%; in that of `OC(CN1CCNCC1)Cn1c2ccc(Br)cc2c2cc(Br)ccc21` (stereo not drawn), 123%. Take `CC(CN(C)C)CN1c2ccccc2Sc2ccccc21` (stereo not drawn) [R4A_0005516_001 / SPE_M58473998]: the result_ITMP came to 17.1%. Then `CC(C)Nc1cccnc1N1CCN(C(=O)c2cc3cc(NS(C)(=O)=O)ccc3[nH]2)CC1`, with -1.3%. In the case of `CCOCOC[C@H](C[C@H](C)C(=O)NO)NC(=O)c1ccc(Oc2ccccc2)cc1` it was -0.6%; in that of `NS(=O)(=O)c1cc2c(cc1Cl)NC(C(Cl)Cl)NS2(=O)=O` (stereo not drawn), -3.35%; in that of `COCC(O)Cn1ccnc1[N+](=O)[O-]` (stereo not drawn), 4.58%. Then `NC(=O)c1cnc(N[C@@H]2CCCC[C@@H]2N)nc1Nc1cccc(-n2nccn2)c1`, with 18.8%; and `CCC1OC(=O)CC(O)C(C)C(OC2OC(C)CC(N(C)C)C2O)C(CC=O)CC(C)C(=O)/C=C/C2(C)OC2C1C` (stereo not drawn), with -0.55%; and `CC[C@@](C)(Nc1ccnc(-c2c[nH]c3ncccc23)n1)C(=O)NCC(F)(F)F`, with -0.82%.

`Cc1nnc(C(C)C)n1[C@@H]1C[C@H]2CC[C@@H](C1)N2CC[C@H](NC(=O)C1CCC(F)(F)CC1)c1ccccc1`: the result_ITMP is 0.66%. On to `CC1(C)S[C@@H]2[C@H](NC(=O)C(C(=O)[O-])c3ccccc3)C(=O)N2[C@H]1C(=O)[O-]` (stereo partly drawn), for which the result_ITMP is reported as -1.48%. Then `COc1cc(C(=S)N2CCOCC2)cc(OC)c1OC`, with -0.06%; and `Nc1ccccc1S(N)(=O)=O`, with -10.3%; and `O=C(N[C@H]1CCN(C(=O)c2cc(C(F)(F)F)cc(C(F)(F)F)c2)[C@H](Cc2ccc(Cl)cc2)C1)c1ccnc2ccccc12`, with -1.02%. In the case of `COc1ccccc1Oc1c(NS(=O)(=O)c2ccc(C(C)(C)C)cc2)nc(-c2ncccn2)nc1OCCO` it was -4.54%; in that of `C[N+](C)(C)CC#CCN1CCCC1=O`, -1.83%; in that of `Cc1cc(O)cc2c1O[C@@](C)(CCC[C@@H](C)CCC[C@@H](C)CCCC(C)C)CC2`, -8.73%. Then `C=CCN1CC[C@@]2(C)c3cc(O)ccc3C[C@H]1[C@H]2C`, with -0.02%. On to `COc1cc2c(Oc3ccc(NC(=O)C4(C(=O)Nc5ccc(F)cc5)CC4)cc3F)ccnc2cc1OCCCN1CCOCC1`, for which the result_ITMP is on record as 80.1%.
